Test results reported in PubChem BioAssay AID504333 (National Center for Advancing Translational Sciences (NCATS), 2011).
Among all 360,000 compounds or so, about 16,000 (4.4%) were called active. Inconclusive results, whose numbers are uncertain, are shown with a selection of clear calls. The call rests on the fitted dose curve; in most records, active means well fitted inhibition curve with a large enough effect; inconclusive means small, poorly fitted or top-dose-only effect; inactive means no such curve, though single readings can be large or run the other way. Potencies beside an inconclusive call are fits to weak or partial responses and may not hold up.

Molecular target: Bromodomain adjacent to zinc finger domain protein 2B (Homo sapiens) (UniProt Q9UIF8)
Chain of UniProt Q9UIF8 (Q9UIF8 whole entry, looked up, the tested form may be a part): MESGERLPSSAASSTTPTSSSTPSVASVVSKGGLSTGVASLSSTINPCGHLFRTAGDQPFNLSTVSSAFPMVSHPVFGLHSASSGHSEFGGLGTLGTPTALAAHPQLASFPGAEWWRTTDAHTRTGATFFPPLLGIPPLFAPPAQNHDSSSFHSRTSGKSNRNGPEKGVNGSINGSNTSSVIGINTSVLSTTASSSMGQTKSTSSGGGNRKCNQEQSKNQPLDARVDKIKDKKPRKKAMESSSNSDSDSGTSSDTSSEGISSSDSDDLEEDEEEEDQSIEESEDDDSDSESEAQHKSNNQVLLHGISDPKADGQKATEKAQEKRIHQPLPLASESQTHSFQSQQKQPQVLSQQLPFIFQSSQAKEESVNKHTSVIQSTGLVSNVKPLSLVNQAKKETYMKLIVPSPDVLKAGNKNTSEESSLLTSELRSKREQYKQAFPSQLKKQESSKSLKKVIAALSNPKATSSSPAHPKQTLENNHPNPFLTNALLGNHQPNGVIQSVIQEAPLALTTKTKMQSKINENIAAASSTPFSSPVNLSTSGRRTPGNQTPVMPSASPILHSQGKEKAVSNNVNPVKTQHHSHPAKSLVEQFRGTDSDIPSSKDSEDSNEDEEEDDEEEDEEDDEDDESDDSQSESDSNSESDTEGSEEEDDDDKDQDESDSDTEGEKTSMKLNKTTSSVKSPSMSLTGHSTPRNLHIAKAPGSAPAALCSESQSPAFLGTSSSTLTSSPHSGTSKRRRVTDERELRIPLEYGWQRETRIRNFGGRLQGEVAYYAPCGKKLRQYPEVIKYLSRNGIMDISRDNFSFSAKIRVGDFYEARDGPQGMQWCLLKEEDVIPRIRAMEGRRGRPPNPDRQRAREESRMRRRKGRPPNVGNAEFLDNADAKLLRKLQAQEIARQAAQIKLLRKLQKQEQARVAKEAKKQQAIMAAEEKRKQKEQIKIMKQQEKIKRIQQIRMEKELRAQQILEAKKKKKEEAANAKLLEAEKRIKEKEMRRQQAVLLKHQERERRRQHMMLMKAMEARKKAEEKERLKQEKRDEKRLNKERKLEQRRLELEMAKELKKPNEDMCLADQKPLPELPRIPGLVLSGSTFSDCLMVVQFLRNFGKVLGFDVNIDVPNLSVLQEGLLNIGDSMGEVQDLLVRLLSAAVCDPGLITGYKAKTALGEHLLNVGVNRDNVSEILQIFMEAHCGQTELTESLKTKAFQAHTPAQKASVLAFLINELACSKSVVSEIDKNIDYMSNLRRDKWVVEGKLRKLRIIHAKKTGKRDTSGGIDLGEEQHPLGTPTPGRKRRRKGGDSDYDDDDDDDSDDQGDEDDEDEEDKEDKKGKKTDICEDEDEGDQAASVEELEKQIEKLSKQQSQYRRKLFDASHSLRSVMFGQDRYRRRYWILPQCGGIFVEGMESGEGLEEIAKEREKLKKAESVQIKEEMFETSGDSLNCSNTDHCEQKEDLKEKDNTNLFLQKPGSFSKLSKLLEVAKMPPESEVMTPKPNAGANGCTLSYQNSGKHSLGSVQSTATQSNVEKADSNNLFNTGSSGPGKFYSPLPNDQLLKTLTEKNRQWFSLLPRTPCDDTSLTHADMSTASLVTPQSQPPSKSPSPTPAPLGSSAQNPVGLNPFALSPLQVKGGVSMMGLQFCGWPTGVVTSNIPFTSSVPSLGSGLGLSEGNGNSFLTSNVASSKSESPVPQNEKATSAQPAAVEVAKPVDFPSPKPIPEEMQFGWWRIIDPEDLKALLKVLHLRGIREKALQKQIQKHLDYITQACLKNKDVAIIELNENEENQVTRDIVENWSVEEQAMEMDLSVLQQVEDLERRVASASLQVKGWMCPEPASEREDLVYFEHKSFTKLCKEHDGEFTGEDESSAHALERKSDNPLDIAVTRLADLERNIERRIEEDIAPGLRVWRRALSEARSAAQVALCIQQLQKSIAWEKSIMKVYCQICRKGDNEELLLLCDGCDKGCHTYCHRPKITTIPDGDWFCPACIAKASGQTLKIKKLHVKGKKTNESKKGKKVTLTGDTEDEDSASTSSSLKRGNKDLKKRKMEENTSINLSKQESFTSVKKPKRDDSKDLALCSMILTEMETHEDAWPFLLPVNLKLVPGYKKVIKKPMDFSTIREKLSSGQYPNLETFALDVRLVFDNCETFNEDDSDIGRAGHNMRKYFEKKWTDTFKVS
Experiment: qHTS Assay for Inhibitors of BAZ2B; further: nearly all actives have a fitted effect of over 60% in size
Conditions: AlphaScreen BAZ2B-H3K14Ac peptide displacement; activity change, negative = inhibition: at 114 µM (top of the series)
Source text: BAZ2B (bromodomain adjacent to zinc finger domain, 2B) belongs to a family of ubiquitously expressed bromodomain containing proteins, which biological function has not yet been elucidated. […] The interaction of BAZ2B with ISWI mediated by the BAZ1 motif has recently been described. […] The protocol is based on the AlphaScreen (PerkinElmer) displacement assay developed by NCGC [5], but uses the peptide ligand Biot-H3K14Ac, a high affinity binding partner for BAZ2B, in an AlphaScreen format. Although AlphaScreen has significant advantages with its utility in a variety of epigenetic target assays, the primary screening data provided in this deposition should be used with caution due to the prevalence of screening artifacts. The top compound concentration tested was 110uM in this assay, which increases number of actives and potential artifacts. An AlphaScreen counterscreen is highly recommended to be run against any putative actives to eliminate non-specific artifacts. Alternatively, one can use other AlphaScreen assays in PubChem to filter out promiscuous hits. Eberharter, A. et al. ACF1 improves the effectiveness of nucleosome mobilization by ISWI through PHD-histone contacts. The EMBO journal 23, 4029-4039. 2004. PMID: 15457208 [2] Jones, M.H. et al. A novel family of bromodomain genes. Genomics 63, 40-45. 2000. PMID: 10662543 [3] Yasgar, et al. Compound Management for Quantitative High-Throughput Screening. JALA. 2008 Apr;13(2):79-89. PMID: 18496600 [4] Inglese, et al. Quantitative high-throughput screening: a titration-based approach that efficiently identifies biological activities in large chemical libraries. Proc Natl Acad Sci. 1;103(31):11473-8. 2006. PMID: 16864780 [5] Quinn et al. A chemiluminescence-based method for identification of histone lysine methyltransferase inhibitors. Mol Biosyst 6(5): 782-8. 2010. PMID: 20567762 [6] Baell,Holloway. New substructure filters for removal of pan assay interference compounds (PAINS) from screening libraries and for their exclusion in bioassays. J Med Chem. 53(7):2719-40. 2010. PMID: 20131845 NIH Molecular Libraries Probe Production Network [MLPCN] NIH Chemical Genomics Center [NCGC] Structural Genomics Consortium (SGC) NIH Grant: 5U54 MH084681-02
To each well of a 1,536w plate, 2ul of BAZ2B protein (final 50nM) and 1ul biotinylated histone peptide acetylated at Lys14 [b-H3(5-23)K14Ac] (final 50nM) were added in 1x PBS buffer, pH 7.4, containing 0.01% Tween-20, using a nanoliter dispenser. Formation of a protein-peptide complex proceeded at room temperature for 30 min. A Kalypsys pin-tool was employed to transfer 23 nL of library compound solution in DMSO to each well. Following a 30 min incubation of the protein-peptide complex with compounds at room temperature, a mixture of 40 ug/mL each streptavidin-coated donor and nickel chelate acceptor AlphaScreen beads (final 10 ug/mL) were added in a 1ul dispense for a final volume of 4ul. A brief centrifugation followed (1000rpm, 1 min) and were then incubated protected from the light for 20 min at room temperature. Plates were read on an EnVision multilabel plate reader using the 1,536 plate HTS AlphaScreen aperture (excitation time 80 ms, measurement time 240 ms).
On the % scale 0 is the no-effect control and ±100 the full control effect; potency means the concentration at half of the fitted maximal effect; tags describe the fitted curve by direction and shape.

| SMILES | Potency | activity change, negative = inhibition |
| --- | --- | --- |
| Cc1ccc(/C=C2\C(=O)NC(=S)N(c3cccc(F)c3)C2=O)o1 | active: 50.1 µM | – |
| CCCCC(=O)C1C(=O)NC(=O)NC1=O | – | inactive: -30.3% |
| Nc1nc(NC(=O)/C=C/c2ccc(F)cc2)nn1-c1ccccc1 | inconclusive: 89.1 µM [inhibitor, single point] | – |
| CC(C)(C)c1ccc(-c2c(C(=O)O)c(C(=O)O)c3n2CSC3)cc1 | inconclusive: 89.1 µM [inhibitor, single point] | – |
| O=C(O)CCC(=O)NNC(=O)COc1ccc2ccccc2c1Br | inconclusive: 79.4 µM [inhibitor, single point] | – |
| CNC(=S)N(C)CCc1cc2c(c(OC)c1C=C1C(=O)NC(=O)NC1=O)OCO2 | inconclusive: 89.1 µM [inhibitor, single point] | – |
| CC(C)(C)NC(=O)C1CC2CCCCC2CN1 (stereo unspecified) | inconclusive: 89.1 µM [inhibitor, single point] | – |
| CCn1c(O)c(C(c2ccccn2)c2c(O)n(CC)c(=S)[nH]c2=O)c(=O)[nH]c1=S | active: 31.6 µM | – |
| O=C(Oc1ccccc1)N(c1ccccc1)c1ccccc1 | – | inactive: 45.5% |
| O=C(O)c1ccccc1-c1ccc(C=C2C(=O)N(c3ccccc3)C(=S)N(c3ccccc3)C2=O)o1 | active: 70.8 µM | – |
| O=c1c(O)c(-c2ccc(O)c(O)c2)oc2cc(O)cc(O)c12 | inconclusive: 39.8 µM [inhibitor, partial curve] | – |
| O=C(N/N=C/c1c(O)n(-c2ccccc2)c(=O)[nH]c1=O)c1ccncc1 | inconclusive: 89.1 µM [inhibitor, single point] | – |
| CCCCCn1c(N)c(C(=O)NCCN2CCOCC2)c2nc3ccccc3nc21 | – | inactive: -2.89% |
| Cc1ccc(-c2nc(CN3C(=O)CN=C(c4ccccc4)c4cc(Cl)ccc43)c(C)o2)cc1 | – | inactive: -0.698% |
| CC1(c2ccc(Cl)cc2Cl)OCC(Cn2cncn2)O1 (stereo unspecified) | active: 70.8 µM | – |
| CC1(C)C2CC=C(CN3CCC(O)CC3)C1C2 (stereo unspecified) | inconclusive: 89.1 µM [inhibitor, single point] | – |
| CCC(C)N1C(=O)NC(=O)C2(Cc3c(ccc4ccccc34)N(C)C2)C1=O (stereo unspecified) | inconclusive: 39.8 µM [inhibitor, partial curve] | – |
| CN1C(=O)C(=Cc2ccccc2OCCOc2ccc([N+](=O)[O-])cc2)C(=O)N(C)C1=O | active: 50.1 µM | – |

| SMILES | Potency | activity change, negative = inhibition |
| --- | --- | --- |
| CCOC(=O)C1CCCN(c2ccc([N+](=O)[O-])c3nonc23)C1 (stereo unspecified) | inconclusive: 79.4 µM [inhibitor, single point] | – |
| CN1CCN(CCOC2c3ccccc3CSc3ccc(Cl)cc32)CC1 (stereo unspecified) | inconclusive: 50.1 µM [inhibitor, partial curve] | – |
| CN1C(=O)c2ccccc2NC(=O)C1Cc1ccccc1 (stereo unspecified) | – | inactive: -2.93% |
| CCN1C(=O)NC(=O)/C(=C\c2ccc(N3CCOCC3)cc2OC)C1=O | – | inactive: -23.6% [at 57.1 µM] |
| O=C1c2cccc3cccc(c23)C(=O)N1CCN1CCN(C(=S)Nc2ccccc2)CC1 | inconclusive: 39.8 µM [inhibitor, partial curve] | – |
| Cc1ccc(C)c(OCC(=O)N2CCN(Cc3ccc4c(c3)OCO4)CC2)c1 | inconclusive: 89.1 µM [inhibitor, single point] | – |
| CN(C)CC#CCn1c2ccccc2c2ccccc21 | inconclusive: 70.8 µM [inhibitor, single point] | – |
| CCOc1cc2c(cc1OCC)-n1cccc1C(c1c(O)cccc1OC)NC2 (stereo unspecified) | active: 44.7 µM | – |
| CN(C)c1ccc(C(O)P(=O)(OCc2ccccc2)c2ccc(N(C)C)cc2)cc1 (stereo unspecified) | active: 39.8 µM | – |
| Cc1cccc(OCC(=O)N2CCN(Cc3ccc4c(c3)OCO4)CC2)c1 | active: 50.1 µM | – |
| CCCCCCOc1ccc(CN2CCN(CC)CC2)cc1 | inconclusive: 100 µM [inhibitor, single point] | – |
| Cc1[nH]c2ccc(OC(F)(F)F)cc2c1CCNCc1ccc(Cl)cc1 | active: 50.1 µM | – |
| Nc1ccc(N2CCN(Cc3ccccc3Cl)CC2)c(Cl)c1 | active: 44.7 µM | – |
| CCCCN1C(=O)/C(=C/c2ccc(N3CCCCCC3)cc2)C(=O)NC1=S | inconclusive: 44.7 µM [inhibitor, partial curve, poor fit] | – |
| CC(C(=O)c1cn(C)c2ccccc12)c1ccccc1 (stereo unspecified) | – | inactive: 1.79% |
| Clc1ccccc1N1CCN(Cc2ccc3c(c2)OCO3)CC1 | active: 79.4 µM | – |
| Cc1cccc(OCCn2cccc2/C=C2/C(=O)NC(=O)N(Cc3ccco3)C2=O)c1 | active: 44.7 µM | – |
| Nc1ccnn1C1CCNCC1 | – | inactive: 2.59% |
